Source: PubChem BioAssay AID504466 (National Center for Advancing Translational Sciences (NCATS), 2011)
Screen size: about 330,000 compounds; about 4,200 (1.3%) were called active. Inconclusive results, whose numbers are uncertain, are shown with a selection of clear calls. Calls follow the shape of the dose curve; as a rule, active = well fitted activation curve with a large enough effect; inconclusive = small, poorly fitted or top-dose-only effect; inactive = no such curve, though single readings can be large or run the other way. Where the call is inconclusive, the potency comes from a doubtful curve fit.

test: qHTS screen for small molecules that induce genotoxicity in human embryonic kidney (HEK293T) cells expressing luciferase-tagged ELG1; conditions: HEK293T ELG1-luciferase reporter, luminescence, 16 h; series mostly up to 46 µM; also: nearly all actives have a fitted effect of over 60% in size
Procedure, shortened: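 HEK293T cells expressing luciferase-tagged ELG1 were treated with compound or DMSO for 16 hr at 37°C. Luciferase activity was then read after 30 min with ONE-Glo at room temperature; rising signal flags genetic stress.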
Potency is read from the fitted curve at half-maximal effect; tags tell the direction and shape of the fitted curve.

SMILES | Potency
CCOP(=O)(OCC)C(C)(C)NC(=O)Nc1ccc(Cl)c(Cl)c1 | inactive
COc1ccc(CCOC2OC(CO)C(OC(=O)/C=C/c3ccc(O)c(OC)c3)C(O[C@H]3O[C@@H](C)[C@H](O)[C@@H](O)[C@H]3O)C2O)cc1O (stereo not given in full) | inactive
COc1cc(C(=O)Nc2ccc(OCC(=O)N3CCOCC3)cc2C)cc(OC)c1OC | inactive
COc1ccc(OC)c(N/C=C/C(=O)c2ccccc2)c1 | inconclusive: 0.103 µM [activator, full curve, poor fit]
NC(=O)c1ccc(NC(=O)COC(=O)C2CC(=O)N(Cc3ccccc3)C2)cc1 (stereo not given) | inactive
Nc1[nH]n(-c2ccccc2)c(=O)c1N=Nc1ccc2c(c1)OCO2 | inconclusive: 13 µM [activator, partial curve, poor fit]
O=C(Nc1ccc(Cl)cn1)Nc1ccc(Cl)cn1 | inconclusive: 20.6 µM [activator, partial curve, poor fit]
O=C(NC1CCCCC1)c1ccc2c(c1)OCO2 | inconclusive: 7.08 µM [activator, partial curve]
O=C(CSc1ccccn1)Nc1ccc2c(c1)C(=O)c1ccccc1C2=O | active: 16.4 µM
COc1ccc(-n2nc(C(=O)NCC(=O)O)c3ccccc3c2=O)cc1 | inactive
CCc1ccc(NC2Nc3cc(C)nn3S2)cc1 (stereo not given) | active: 9.2 µM
Cc1cc(NCCCN2CCOCC2)n2ncc(-c3ccccc3)c2n1 | active: 9.2 µM
COc1ccc(OCc2cc(C(=O)N3CCC(OC)CC3)no2)c2ccccc12 | inconclusive: 8.2 µM [activator, partial curve]
O=C(CSc1ccc(F)cc1)Nc1ccc(Br)cc1 | inconclusive: 25.9 µM [activator, partial curve, poor fit]
O=S(=O)(Nc1ccc(-c2nc3cccnc3s2)cc1)c1ccc(Cl)s1 | active: 8.2 µM
Nc1ccc2oc(-c3cccc(Br)c3)nc2c1 | active: 2 µM
Cc1cccc(NC(=O)c2cc(-c3ccc(C)c(C)c3O)n[nH]2)c1 | inconclusive: 9.2 µM [activator, partial curve, poor fit]
Cc1ccc2[nH]c3c(c2c1)CC/C(=C/c1ccccc1)C3=O | inconclusive: 10 µM [activator, partial curve, poor fit]
CCn1nc(NS(=O)(=O)c2ccc([N+](=O)[O-])cc2)c2cc3cc(C)ccc3nc21 | inactive
Oc1cc(NCc2cccnc2)ccc1-c1nc2ccccc2o1 | inconclusive: 3.66 µM [activator, full curve]
COc1ccccc1/C=C/C(=O)NCCC1=CCCCC1 | inconclusive: 8.2 µM [activator, partial curve]
CCn1c(C)nc2cc(C(=O)N/N=C/c3ccccc3C)ccc21 | inconclusive: 3.26 µM [activator, full curve]
CN(C)CCNC(=O)c1cc2c(s1)-c1ccccc1OC2 | active: 23.1 µM

SMILES | Potency
O=C(c1nn2c(C(F)(F)F)cc(-c3cccs3)nc2c1Cl)N1CCCc2ccccc21 | inconclusive: 23.1 µM [activator, partial curve, poor fit]
COc1ccc(OCc2cc(C(=O)N(C)Cc3cc(C4CC4)n[nH]3)no2)c(Cl)c1 | inconclusive: 9.2 µM [activator, partial curve, poor fit]
C[C@H](CO)N1C[C@H](C)[C@@H](CN(C)S(=O)(=O)c2ccc(F)cc2)Oc2c(NC(=O)Nc3ccccc3)cccc2C1=O | inactive
CCOc1ccc(/C=C2\CCC(C3CCCC3)C2=O)cc1 (stereo not given) | inconclusive: 5.17 µM [activator, full curve]
CCC(=O)CCC(=O)c1ccc2ccccc2c1 | inconclusive: 18.4 µM [activator, single point]
Cn1c(=O)cc(OCCCC(=O)NCc2ccc3c(c2)OCO3)c2ccccc21 | inconclusive: 29.1 µM [activator, single point]
COc1ccc(-c2cnc3c(-c4ccc(F)cc4)cnn3c2N)cc1 | inconclusive: 2.06 µM [activator, full curve]
COc1cccc2cc(C(=O)OCC(=O)NCc3ccc4c(c3)OCO4)c(=O)oc12 | inconclusive: 18.3 µM [activator, single point]
CCc1ccc(NC(=O)CS(=O)CC(=O)Nc2ccc(N3CCOCC3)cc2)cc1 (stereo not given) | inconclusive: 29.1 µM [activator, single point]
O=C(NCCc1ccccc1)c1ccc(Br)o1 | inconclusive: 13 µM [activator, partial curve, poor fit]
COc1cc(Cl)ccc1OCc1cc(C(=O)N2CCCC(OC)C2)no1 (stereo not given) | active: 5.8 µM
CN(C)S(=O)(=O)c1ccc2oc(SCC(=O)Nc3ccccc3F)nc2c1 | active: 10.3 µM
CC1(C)NC(=O)N(CCCOc2ccccc2Br)C1=O | inconclusive: 29.1 µM [activator, partial curve, poor fit]
O=C(/C=C/c1ccc(O)cc1)c1ccccc1 | inconclusive: 16.4 µM [activator, single point]
Cc1ccc(-c2nnc(Nc3ccccc3)o2)cc1 | active: 0.146 µM
CC(Oc1ccccc1)C(=O)NNC(=O)c1ccccn1 (stereo not given) | inconclusive: 29.1 µM [activator, partial curve, poor fit]
Cc1cccc(NC(=O)Cc2noc3ccccc23)c1 | inconclusive: 18.4 µM [activator, partial curve, poor fit]
CCOC(=O)C1(Cc2cccc(OC)c2)CCCN(C(=O)CNC(C)=O)C1 (stereo not given) | inconclusive: 14.6 µM [activator, partial curve, poor fit]
CSc1ccc(C2C(C(=O)c3ccco3)=C(O)C(=O)N2c2nnc(SC)s2)cc1 (stereo not given) | inconclusive: 0.517 µM [activator, full curve]
COCCN(C(=O)C1CC1)c1nnc(-c2cccc(C)c2)s1 | inconclusive: 13 µM [activator, partial curve, poor fit]
Cc1ccc(C(=O)CSc2ccc(-c3ccncc3)nn2)cc1 | inactive
CNC(=O)COC(=O)/C=C/c1cccc(F)c1 | inactive
